The chains are these.
B1: glmS ribozyme (parent)
chain: AUAAAAGCGCCAGAACUACAGAAAUGUAGUUGACGAGGAGGAGGUUUAUCGAAUUUUCGGCGGAUGCCUCCAAA

± gives the standard error. Variants at the background level are over-represented here.

In one data set the parent is B1. Put plainly: self-cleavage kobs at 2500 uM GlcN6P; higher = faster cleavage; RNA array. To be noted: with glucosamine-6-phosphate. The method in brief:
(§1)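 On sequenced MiSeq chips, barcoded ribozyme variants were made in situ by E. coli RNA polymerase and followed at 37 °C through a hybridised Cy3 probe. Glucosamine-6-phosphate was flowed in at 40 μM to 10 mM in HEPES/KCl/Mg(OAc)2 buffer. Exponential fits to normalised per-tile medians gave kobs, and weighted Michaelis–Menten fits gave kcat and KM.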
As for AUAAAAGCGCCAGAACUACAGAAAUGUAGUUGACGAGGACGAGGUUUAUCGAAUUAUCGGGGGAUGUCUCCAAA, the “self-cleavage kobs at 2500 uM GlcN6P” value is below 1e-05 s⁻¹. The same measure, in the same setting: as for AUAAAAGCGCCAGAACUACAGAAAUGUAGUUGACGAGGAAGAUGUUUAUCGAAUUUUCGGGGGAUGCCUCCAAA, the figure is below 1e-05 s⁻¹; as for AUAAAAGCGCCAGAACUACAGAAAUGUAGUUGACGAGGUGGGGGUUUAUCGAAUUUUCGGCGGUUGCCUCCAAA, 5.16e-05 ± 2.2e-05 s⁻¹; as for AUAAAAGCGCCAGAACUACAGAAAUGUAGUUGACGAGGCGGAGGUUUACCGAAUUUGCGGCGUAUGCCUCCAAA, below 1e-05 s⁻¹. Still for that read-out and setting: as for AUAAAAGCGCCAGAACUACAGAAAUGUAGUUGACGAGUAGGUGUUUUAUCUAAUUUUCGGCGGAUGCCUCCAAA, the figure is below 1e-05 s⁻¹.

AUAAAAGCGCCAGAACUACAGAAAUGUAGUUGACGAGGAGCAGGUUUAUCGAAGUUUCGGCGUAUGCCUCCAAA: the “self-cleavage kobs at 2500 uM GlcN6P” value was below 1e-05 s⁻¹. The same measure, in the same setting: as for AUAAAAGCGCCAGAACUACAGAAAUGUAGUUGACGAGGGGGAGGUUUAUCGAAUUUUCGGGGGAUUCCUCCAAA, the figure is below 1e-05 s⁻¹; as for AUAAAAGCGCCAGAACUACAGAAAUGUAGUUGACGAGGACGAGGUUUGUCGUAUUUUUGGCGGAUGCCUCCAAA, below 1e-05 s⁻¹; as for AUAAAAGCGCCAGAACUACAGAAAUGUAGUUGACGAGGAUGAGGUUUAGCGAAUUUUCGGCGGAUGCCUCCAAA, 9.77e-05 ± 2e-05 s⁻¹.

On to AUAAAAGCGCCAGAACUACAGAAAUGUAGUUGACGAGGUGGAGGUUCAUCGAAUUAUCGGCGGAUGCCUCCAAA, for which the “self-cleavage kobs at 2500 uM GlcN6P” value stood at 0.00121 ± 0.00039 s⁻¹. On the same count and under the same terms, for AUAAAAGCGCCAGAACUACAGAAAUGUAGUUGACGAGGAGCAGGUUCAUCGAAUUUUCGGGGGAUGUCUCCAAA the value was below 1e-05 s⁻¹. As for AUAAAAGCGCCAGAACUACAGAAAUGUAGUUGACGAGGAGAAGGUUUAUUGAAUUUUCGGCGGAUGUCUCCAAA, the “self-cleavage kobs at 2500 uM GlcN6P” value was below 1e-05 s⁻¹.

AUAAAAGCGCCAGAACUACAGAAAUGUAGUUGACGAGCAGGAGCUUUAUCGUAAUUUCGGCGGAUGCCUCCAAA: the “self-cleavage kobs at 2500 uM GlcN6P” value is below 1e-05 s⁻¹. Still for that read-out and setting: for AUAAAAGCGCCAGAACUACAGAAAUGUAGUUGACGAGGAGAAGGUUUAUCGAAUUUUUGGCGUAUGCCUCCAAA the value was below 1e-05 s⁻¹. The same measure, in the same setting: as for AUAAAAGCGCCAGAACUACAGAAAUGUAGUUGACGAGGGGCAGGUUUAUUGAAUUUUCGGCGGAUGCCUCCAAA, the figure is below 1e-05 s⁻¹; as for AUAAAAGCGCCAGAACUACAGAAAUGUAGUUGACGAGGGCGAGGUUUAUCGAAUUUGCGGCGGAUGCCUCCAAA, below 1e-05 s⁻¹. The same measure, in the same setting: for AUAAAAGCGCCAGAACUACAGAAAUGUAGUUGACGAGCAGGAGGUUUAUCGAAUUUUCGCCGAAUGCCUCCAAA the value was below 1e-05 s⁻¹; for AUAAAAGCGCCAGAACUACAGAAAUGUAGUUGACGAGGAUGAGGUUUAUCUAAUUUUCGGCGGAUGCCCCUAAA, below 1e-05 s⁻¹. On to AUAAAAGCGCCAGAACUACAGAAAUGUAGUUGACGAGGAAGAGGUUUAUCGAAUUUUCGUCGUAUGACUCCAAA, for which the “self-cleavage kobs at 2500 uM GlcN6P” value was below 1e-05 s⁻¹. Still for that read-out and setting: as for AUAAAAGCGCCAGAACUACAGAAAUGUAGUUGACGAGCAGGAGGUUCAUCGAAUUUUCGGCGGAUGUCUCCAAA, the figure is below 1e-05 s⁻¹. Same read-out and setting: as for AUAAAAGCGCCAGAACUACAGAAAUGUAGUUGACGAGGGGUAGGUUAAUCGAAUCUUCGACGGAUGCUUCCAAA, the figure is below 1e-05 s⁻¹; as for AUAAAAGCGCCAGAACUACAGAAAUGUAGUUGACGAGGAGCUGGUUUAUCGAAUUUUCGCCCGAUGCCUCCAAA, below 1e-05 s⁻¹; as for AUAAAAGCGCCAGAACUACAGAAAUGUAGUUGACGAGGACGAGGUUAAUCGAAUUUUCGGCGGAGGCCUCCAAA, 0.000652 ± 0.00017 s⁻¹.

Turning to AUAAAAGCGCCAGAACUACAGAAAUGUAGUUGACGAGGAGCAGGUUUAUCGAAUUUUCGGCGGUUGCCUCCAAA, the “self-cleavage kobs at 2500 uM GlcN6P” value is below 1e-05 s⁻¹.

On to AUAAAAGCGCCAGAACUACAGAAAUGUAGUUGACGAGGCGUAGGUUUAUCGACUUUUCGGCGGAUGCCUCCAAA, for which the “self-cleavage kobs at 2500 uM GlcN6P” value is below 1e-05 s⁻¹. Take AUAAAAGCGCCAGAACUACAGAAAUGUAGUUGACGAGGGGAAGGGUUAUAGAAUUUUCGGCGGAUGCCUCCAAA: the “self-cleavage kobs at 2500 uM GlcN6P” value is below 1e-05 s⁻¹.

AUAAAAGCGCCAGAACUACAGAAAUGUAGUUGACGAGGACGAGGGUUAUCGAAUUUUCGGCGGUUGCCUCCAAA: the “self-cleavage kobs at 2500 uM GlcN6P” value was below 1e-05 s⁻¹. In the case of AUAAAAGCGCCAGAACUACAGAAAUGUAGUUGACGAGGAGAAGGUUUAUCGAGUAUUCGGCGGAUGCCUCCAAA, the “self-cleavage kobs at 2500 uM GlcN6P” value came to 0.000666 ± 0.00022 s⁻¹. As to AUAAAAGCGCCAGAACUACAGAAAUGUAGUUGACGAGGAAGAAGUUUAUCGAAUUUUCGGCGGAUGCCGGCAAA, the “self-cleavage kobs at 2500 uM GlcN6P” value is below 1e-05 s⁻¹. As for AUAAAAGCGCCAGAACUACAGAAAUGUAGUUGACGAGGGGGAGGUUUAUCGAAUCUUCGGCGGGUGCCUCCAAA, the “self-cleavage kobs at 2500 uM GlcN6P” value is 0.00694 ± 0.0013 s⁻¹. On the same count and under the same terms, as for AUAAAAGCGCCAGAACUACAGAAAUGUAGUUGACGAGGUGGAGGUUUAACGAAUUGUCGGCGGAUGCCUCCAAA, the figure is below 1e-05 s⁻¹; as for AUAAAAGCGCCAGAACUACAGAAAUGUAGUUGACGAGGAAGAGGUUUAUCGAAUUUUCGGUGGCAGCCUCCAAA, below 1e-05 s⁻¹; as for AUAAAAGCGCCAGAACUACAGAAAUGUAGUUGACGAGGACGAGGUUUAUCGGAUUUUCGACGGAUGCCUCCAAA, below 1e-05 s⁻¹.

In the next data set the parent is B1. Put plainly: self-cleavage kobs at 10000 uM GlcN6P; higher = faster cleavage; RNA array. The conditions noted are these: with glucosamine-6-phosphate. The method in brief: as §1
For AUAAAAGCGCCAGAACUACAGAAAUGUAGUUGACGAGGAUGAGGUUUAGCGAAUUUUCGGCGGAUGCCUCCAAA, the “self-cleavage kobs at 10000 uM GlcN6P” value amounted to 6.94e-05 ± 1.1e-05 s⁻¹. On the same count and under the same terms, as for AUAAAAGCGCCAGAACUACAGAAAUGUAGUUGACGAGGGGUAGGUUAAUCGAAUCUUCGACGGAUGCUUCCAAA, the figure is below 1e-05 s⁻¹; as for AUAAAAGCGCCAGAACUACAGAAAUGUAGUUGACGAGGAGCAGGUUUAUCGAAUUUUCGGCGGUUGCCUCCAAA, below 1e-05 s⁻¹.

As for AUAAAAGCGCCAGAACUACAGAAAUGUAGUUGACGAGGUGGAGGUUUAACGAAUUGUCGGCGGAUGCCUCCAAA, the “self-cleavage kobs at 10000 uM GlcN6P” value was below 1e-05 s⁻¹.
